Measurements: PubChem BioAssay AID488969 (Vanderbilt High Throughput Screening Facility, 2010)
Whole data set: some 110,000 compounds, median “z-score” near -0.1, cut for the highest 2% near 2. The list shows a part of the results. Active and inactive are the calls of the source.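 The calls were made as follows: active = z-score in the third read window above 3 or below -3; inactive = the rest.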

These compounds were tested against Metabotropic glutamate receptor 8 (Rattus norvegicus) (UniProt P70579) (assay: rat mGluR8 modulators via GIRK flux, primary screen, cell-based, thallium flux, HTS (AID 488969)). Details: HEK293 rat mGluR8, GIRK (G protein-gated inwardly rectifying potassium channel) thallium flux, FluoZin2; at 10 µM; stronger effect = higher value; submaximal glutamate (EC20) added with thallium.
UniProt P70579, sequence (P70579 whole entry, looked up): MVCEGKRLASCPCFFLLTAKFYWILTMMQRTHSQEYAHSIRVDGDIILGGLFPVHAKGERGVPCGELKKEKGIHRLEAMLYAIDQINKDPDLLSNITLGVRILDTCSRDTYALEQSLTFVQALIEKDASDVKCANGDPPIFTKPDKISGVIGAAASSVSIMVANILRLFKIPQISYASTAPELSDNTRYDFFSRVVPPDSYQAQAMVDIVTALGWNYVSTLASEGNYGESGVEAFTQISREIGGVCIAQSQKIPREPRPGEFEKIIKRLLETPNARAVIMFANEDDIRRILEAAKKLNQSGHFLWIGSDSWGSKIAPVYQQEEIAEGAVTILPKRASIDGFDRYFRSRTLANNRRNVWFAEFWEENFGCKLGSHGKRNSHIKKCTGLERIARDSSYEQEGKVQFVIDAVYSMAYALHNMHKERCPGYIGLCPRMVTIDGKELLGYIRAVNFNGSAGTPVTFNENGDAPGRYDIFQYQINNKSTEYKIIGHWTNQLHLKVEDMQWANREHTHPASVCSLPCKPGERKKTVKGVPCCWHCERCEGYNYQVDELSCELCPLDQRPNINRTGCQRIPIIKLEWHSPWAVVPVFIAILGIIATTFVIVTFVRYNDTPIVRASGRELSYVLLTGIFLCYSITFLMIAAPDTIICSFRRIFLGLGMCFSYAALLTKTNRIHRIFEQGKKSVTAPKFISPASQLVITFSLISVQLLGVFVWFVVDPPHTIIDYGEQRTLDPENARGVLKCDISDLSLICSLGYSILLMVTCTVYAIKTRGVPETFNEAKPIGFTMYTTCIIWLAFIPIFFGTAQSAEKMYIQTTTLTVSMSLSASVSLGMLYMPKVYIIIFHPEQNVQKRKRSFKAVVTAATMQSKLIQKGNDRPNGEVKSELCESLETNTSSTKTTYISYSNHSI

SMILES | z-score
O=C(c1ccc(CS(=O)(=O)c2c(Cl)cccc2Cl)o1)N1CCCC1 | -0.558
CCC(C)c1ccc(OCC(=O)O)cc1 (stereo not drawn) | -0.502
CCOC(=O)N1CCN(C(=O)c2cnsn2)CC1 | -0.305
Cc1ccc(S(=O)(=O)N(CCCO)Cc2cc3c(C)ccc(C)c3[nH]c2=O)cc1 | -0.198
O=C(NC1CCCCC1)c1ccc(CN2CCOCC2)cc1 | 0.501
COc1ccc(-c2ccnc3nc(N4CCOCC4)nn23)cc1 | -0.177
O=C(N/N=C/c1ccc(Cl)cc1Cl)c1cccc(F)c1 | -0.0366
CCOC(=O)CN(C(=O)CSc1nnc(CNc2ccc(F)cc2)n1CC)c1ccc(F)cc1 | -0.599
Cc1ccc(Oc2ccc(-c3nc(N)nc(N)n3)cc2)cc1 | 0.224
NNC(=O)c1cn2ccccc2n1 | 0.132
c1ccc(-c2nc(-n3nc4ccccc4n3)nc3ccccc23)cc1 | -0.594
CN(C)c1ccc(CNc2ncc(Br)cc2Br)cc1 | 1.51
CCOc1ccccc1-n1c(N)c(C(N)=O)sc1=S | 0.182
O=C(Nc1ccccc1Cl)C1CCCN(S(=O)(=O)c2ccc(F)cc2)C1 (stereo not drawn) | -0.181
CC(C(=O)N=c1sc2ccccc2n1C)N1C(=O)C2CC=CCC2C1=O (stereo not drawn) | 0.889
CCOC(=O)Cc1csc(NC(=O)CCS(=O)(=O)Cc2ccccc2)n1 | -0.291
COc1ccc(N=C2SC(CC(=O)Nc3ccc(OC)cc3OC)C(=O)N2C)cc1 (stereo not drawn) | -1.68
CCCCN1C(=O)c2ccc(C(=O)Nc3cccnc3)cc2C1=O | -0.153
COc1ccc(CNC(=S)Nc2ccc(OC)cc2)cc1 | 0.711
CCC(CC)C(=O)Nc1cccc(C(=O)c2ccccc2)c1 | -0.307
CCOc1ccc(NC2=C(Cl)C(=O)N(Cc3ccccc3)C2=O)cc1 | -0.0594
Cc1ccc2nc3ccc(N4CCCCCCC4)nn3c(=O)c2c1 | -0.682
Cc1c(NC(=O)Cn2ccc([N+](=O)[O-])n2)c(=O)n(-c2ccccc2)n1C | -0.148

SMILES | z-score
CCCCNC(=O)c1sc(=S)n(-c2ccccc2OC)c1N | -0.359
Cc1cccc(-n2c(-c3csc(C)c3)n[nH]c2=S)c1 | 0.189
CCC(C)NC(=O)c1ccccc1NC(=O)C(C)N(c1ccccc1)S(C)(=O)=O (stereo not drawn) | -0.313
O=C(c1cccc(S(=O)(=O)Nc2cccc(C(F)(F)F)c2)c1)N1CCCCC1 | -0.337
CSc1nc(C)c2c(n1)N(c1cccc(C)c1)CC2 | -0.25
COc1ccc(CCNC(=O)CN2CCN(c3ccccc3Cl)CC2)cc1 | 0.132
O=C(COc1ccc2c(c1)CCC2)NCc1cccc(Cl)c1 | -0.0943
Cc1cc2c(c(SCC(=O)NCCc3ccccc3)n1)C(=O)OC2 | 0.0328
Cc1sc(=NC(=O)c2ccco2)n(C)c1-c1ccc(F)cc1 | -0.236
CCC1C(=O)CC(c2ccco2)NC1c1ccco1 (stereo not drawn) | 0.0353
Cc1ccc(O)c(C2=NOC(O)(C(F)(F)F)C2)c1 (stereo not drawn) | -0.0776
CCOC(=O)c1sc(NC(=O)COC(=O)CNC(=O)C2CCCCC2)c(C(=O)OCC)c1C | -0.218
Cc1ccc(C)c(NC(=O)COc2cccc3c2CCN(Cc2ccccc2C)C3=O)c1 | -0.205
COc1ccc(/C(O)=C2/C(=O)C(=O)N(Cc3ccco3)C2c2cccs2)cc1 (stereo not drawn) | 0.0398
CCN(CC)c1ccc(/C=N/Nc2ccc(C)cc2)c(O)c1 | -0.305
CCN1C(=O)/C(=C\c2cccs2)C(C(=O)OC)=C1C | 0.0653
CCCCC(=O)Nc1cccc(-c2csc(-c3ccccc3)n2)c1 | -0.569
O=C(NCC1(c2ccccc2)CCCC1)C1(c2ccccc2)CCCC1 | 0.0324
CNC(=S)NNC(=O)c1cccn(Cc2ccc(Cl)c(Cl)c2)c1=O | -0.0546
COCc1cc(C)nc(N2CCN(Cc3ccccc3)CC2)c1C#N | -0.0304
O=C(Cc1cccs1)Nc1ccon1 | 1.01
Cc1ccc(CCN2CC(C(=O)NCCCN3CCN(C)CC3)CC2=O)cc1 (stereo not drawn) | -0.625
CC(=O)c1cc(C#N)c(Oc2cccc(C(F)(F)F)c2)nc1C | 0.0782

SMILES | z-score
Cc1cc(C)cc(-n2c(SC(C)C(=O)NCc3ccc4c(c3)OCO4)nc3ccccc3c2=O)c1 (stereo not drawn) | -0.19
COc1ccccc1NC(=O)c1sc2nc(Cc3ccccc3)cc(C(F)(F)F)c2c1N | -1.01
CC(=O)Nc1cccc(NC(=O)C2CCCN2C(=O)Nc2ccc(C)cc2)c1 (stereo not drawn) | -0.128
CC1Cc2nc(SCC(=O)NC3CCCCC3)n(C)c(=O)c2S1 (stereo not drawn) | -0.413
Cc1ccccc1-n1c(C)nnc1SCC(=O)NC1CCCc2ccccc21 (stereo not drawn) | -0.34
CC/C(=C\C(=O)c1cccnc1)Nc1ccc(C)c(C)c1 | -0.246
Cc1c(C(=O)N/N=C/C(C)C)[nH]c2c([N+](=O)[O-])cccc12 | -0.722
Cc1cc2cc3c(cc2nc1SCC(=O)OC(C)C)OCCO3 | 0.0166
Cc1nnc(N2CCCCC2)c2ccccc12 | -0.014
Cc1cc(Oc2ccc3ccccc3c2)nc(SCC(=O)c2ccccc2)n1 | -0.14
Cc1ccc(/C=N/NC(=O)c2cccc(S(=O)(=O)Nc3ccccc3Cl)c2)s1 | 0.128
Cc1cc(N2CCC(C)CC2)nc(SCC(=O)c2ccccc2)n1 | -0.578
CNC(=O)CN(C#N)c1nc(N(C)C)nc(N(C)C)n1 | 1.02
O=c1c2c(n3nnnc3n1-c1ccccc1)-c1ccccc1CC21CCCC1 | -0.0588
O=C1CC(c2ccccc2)CC(O)=C1C=NC1CCCCCC1 (stereo not drawn) | -0.211
Cn1c(SCC(=O)Nc2ccc3c(c2)oc2ccccc23)nnc1-c1ccccc1 | -1.01
Cc1ccc(C(=O)/C=C2/NC(=O)CS2)cc1 | -0.116
CCN1C(=O)CC(C(=O)Nc2ccc(F)cc2)SC1=Nc1ccc2c(c1)OCO2 (stereo not drawn) | 0.106
O=C(NCCc1c[nH]c2ccccc12)/C(=C\c1cccnc1)NC(=O)c1cccs1 | -0.234
COc1ccc(/C(O)=C2\C(=O)C(=O)N(CCN3CCOCC3)C2c2ccccc2OC)cc1 (stereo not drawn) | -0.349
O=C(NC1CC1)c1cc(F)c(F)cc1Cl | 0.351
CN(C)c1nc2n(c(=O)n1)CCO2 | 0.82
C=CCc1cccc2cc(C(=O)NCc3ccc(C(=O)OCC)o3)c(=O)oc12 | -1.25

SMILES | z-score
O=C(COC(=O)[C@@H]1CCCN1S(=O)(=O)c1ccc(Cl)cc1)NC12CC3CC(CC(C3)C1)C2 | -0.226
CC(C)NC(=O)C(=O)NCCc1ccc(Cl)cc1 | -0.166
O=C(c1cn(-c2ccccc2)nc1-c1ccncc1)N1CCCCC1 | 0.214
Cc1cccc(-n2nc([N+](=O)[O-])c(=NCc3cccnc3)n2O)c1 | -0.128
O=C(c1cc2ccccc2oc1=O)N(Cc1ccccc1)C1CCS(=O)(=O)C1 (stereo not drawn) | 0.189
Cc1ccnc(NS(=O)(=O)c2ccc(NS(=O)(=O)Cc3ccccc3)cc2)n1 | 1.04
Cn1c(SCC(=O)N2CCOCC2)nc(O)cc1=O | -0.116
Cc1cccc(C)c1-n1c(C)cc(/C=N/NC(=O)c2ccncc2)c1C | 0.0638
O=c1c2ccccc2nc2n1C(CSCc1cccc(C(F)(F)F)c1)CS2 (stereo not drawn) | -0.503
CC(=O)N1N=C(c2cccc([N+](=O)[O-])c2)OC1c1ccc(Cl)cc1Cl (stereo not drawn) | -1.04
COc1ccc(Cl)cc1N(CC(=O)Nc1ccccc1C(=O)NCc1ccco1)S(C)(=O)=O | -0.101
COc1ccc(OC)c(NC(=O)C(CC(=O)O)Cc2ccc(Cl)cc2)c1 (stereo not drawn) | 0.246
CC1=CCC2C(=O)N(c3ccc4ccccc4n3)C(=O)C2C1 (stereo not drawn) | 0.146
c1ccc(-c2nnc(-c3c[nH]c4ccccc34)nc2-c2ccccc2)cc1 | 1.07
Cc1nc2sc(C(c3cccs3)N3CCC4(CC3)OCCO4)c(O)n2n1 (stereo not drawn) | 0.0976
O=C(Nc1ccc(Cl)c(C(F)(F)F)c1)C(=O)N1CCCCC1 | 0.0282
O=C(/C=C/c1ccccc1)NCCSCc1ccccc1Cl | -0.358
CS(=O)(=O)N1CCCC(C(=O)NCCN2CCC(Cc3ccccc3)CC2)C1 (stereo not drawn) | -0.561
CC(C)C(=O)NC(c1ccccc1Cl)c1c(O)ccc2ccccc12 (stereo not drawn) | -0.153
Cn1c(NCc2ccco2)nc2c1c(=O)n(Cc1ccc(Br)cc1)c(=O)n2C | 0.0118
COc1ccccc1-c1nc(NC(C)=O)n[nH]1 | 0.27
O=C(Nc1ccccc1)c1[nH]ncc1[N+](=O)[O-] | -0.189
COc1cc(S(=O)(=O)N2CCN=C2c2ccccc2)ccc1F | -0.526

SMILES | z-score
CCc1nc(SCC(=O)N2CCc3cc(OC)c(OC)cc3C2)c(C#N)cc1C | -0.152
CC(C)(C)c1ccc(CN2C3=NCCCN3c3ccccc32)cc1 | active: 4.19
CCC(C)NC(=O)N[C@@H](CCSC)C(=O)OC (stereo partly drawn) | -0.115
CN1OC(COC(=O)c2ccc(Cl)cc2Cl)CC1c1ccccc1 (stereo not drawn) | 0.0312
Cc1cc(C(=O)Nc2ccon2)cs1 | 0.207
CCOc1cc(/C=N/Nc2ncnc(Cl)c2N)ccc1O | -0.193
Cc1cc(=O)oc2cc(OCC(=O)N3CCCc4ccccc43)ccc12 | 0.88
Cc1nc(-c2ccccc2)nc2[nH]c(C(C)C)cc(=O)c12 | -0.572
O=C(CSc1ccc(Cl)cc1)c1ccco1 | 0.233
O=C(C1CCN(CCCc2ccccc2)CC1)N1CCCCC1 | -0.145
COc1ccc(CCNC(=O)CN2CCC(C(N)=O)CC2)cc1 | 0.63
O=C(Nc1cc2c(cc1Br)OCCO2)c1ccco1 | 0.101
CC(=O)C1=C(C)NC(C)=C(C(C)=O)C1c1cn(-c2ccccc2)nc1-c1cccs1 | 0.325
Cc1nc2sccn2c(=O)c1Br | 0.0767
COc1cc(C(=O)Nc2cc(C(F)(F)F)ccc2Cl)cc(OC)c1OC | -0.494
CC(C)c1ccc(N=c2c([N+](=O)[O-])nn(-c3ccc4c(c3)OCCO4)n2O)cc1 | 0.06
O=C(c1ccccc1F)N(Cc1ccc(F)cc1)C1CCS(=O)(=O)C1 (stereo not drawn) | 0.106
CCOC(=O)c1c(NC(NC(=O)C(C)C)C(Cl)(Cl)Cl)sc2c1CCC2 (stereo not drawn) | -0.163
O=C(CSc1ncnc2scc(-c3ccccc3)c12)NCc1ccc2c(c1)OCO2 | -0.339
CC(C)(C)c1cc(C(=O)N2CCc3ccccc32)ccn1 | -0.218
C=CCn1c(Cc2c(C)[nH]c3ccccc23)nnc1SCC(=O)NCc1ccc(F)cc1 | -0.996
